Data taken from article PMC4133157.
No constants are given. Whether binding was seen depends on the method and setting. Binding seen in cells or lysates may run through a third protein. Some results given as binding are weak or reduced against the parent protein; the word gives no strength. Tags and fused reporters may be left off the sequences shown.

What was measured:
[1] = molecular target: T1, 3XFLAG::EVA-1 (HEK293T) (C. elegans) (UniProt Q9XU98); assay: co-IP; FLAG-tagged receptor on transfected HEK293T cells incubated with 10x concentrated conditioned medium holding the HA- and Gaussia luciferase-tagged ligand, 4 hours at 4°C; cells lysed in TNTE buffer (0.5% Triton X-100), anti-FLAG immunoprecipitation, luciferase activity of the washed immunoprecipitate, normalised to receptor level
T1 sequence: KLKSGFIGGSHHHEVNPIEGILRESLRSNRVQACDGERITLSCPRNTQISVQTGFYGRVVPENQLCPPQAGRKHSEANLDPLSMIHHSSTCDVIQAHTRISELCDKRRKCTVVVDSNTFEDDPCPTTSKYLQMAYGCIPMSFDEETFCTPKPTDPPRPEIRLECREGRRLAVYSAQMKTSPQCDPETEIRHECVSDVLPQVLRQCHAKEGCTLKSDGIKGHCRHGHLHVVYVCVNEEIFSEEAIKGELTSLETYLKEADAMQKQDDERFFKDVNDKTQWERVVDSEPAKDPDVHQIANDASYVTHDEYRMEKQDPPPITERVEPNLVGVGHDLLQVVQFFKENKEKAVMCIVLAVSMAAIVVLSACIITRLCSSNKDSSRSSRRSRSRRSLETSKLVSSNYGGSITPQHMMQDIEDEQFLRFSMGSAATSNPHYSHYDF

[2] = molecular target: T2, SAX-3::3XFLAG (HEK293T) (C. elegans) (UniProt G5EBF1); assay: as above
T2 sequence: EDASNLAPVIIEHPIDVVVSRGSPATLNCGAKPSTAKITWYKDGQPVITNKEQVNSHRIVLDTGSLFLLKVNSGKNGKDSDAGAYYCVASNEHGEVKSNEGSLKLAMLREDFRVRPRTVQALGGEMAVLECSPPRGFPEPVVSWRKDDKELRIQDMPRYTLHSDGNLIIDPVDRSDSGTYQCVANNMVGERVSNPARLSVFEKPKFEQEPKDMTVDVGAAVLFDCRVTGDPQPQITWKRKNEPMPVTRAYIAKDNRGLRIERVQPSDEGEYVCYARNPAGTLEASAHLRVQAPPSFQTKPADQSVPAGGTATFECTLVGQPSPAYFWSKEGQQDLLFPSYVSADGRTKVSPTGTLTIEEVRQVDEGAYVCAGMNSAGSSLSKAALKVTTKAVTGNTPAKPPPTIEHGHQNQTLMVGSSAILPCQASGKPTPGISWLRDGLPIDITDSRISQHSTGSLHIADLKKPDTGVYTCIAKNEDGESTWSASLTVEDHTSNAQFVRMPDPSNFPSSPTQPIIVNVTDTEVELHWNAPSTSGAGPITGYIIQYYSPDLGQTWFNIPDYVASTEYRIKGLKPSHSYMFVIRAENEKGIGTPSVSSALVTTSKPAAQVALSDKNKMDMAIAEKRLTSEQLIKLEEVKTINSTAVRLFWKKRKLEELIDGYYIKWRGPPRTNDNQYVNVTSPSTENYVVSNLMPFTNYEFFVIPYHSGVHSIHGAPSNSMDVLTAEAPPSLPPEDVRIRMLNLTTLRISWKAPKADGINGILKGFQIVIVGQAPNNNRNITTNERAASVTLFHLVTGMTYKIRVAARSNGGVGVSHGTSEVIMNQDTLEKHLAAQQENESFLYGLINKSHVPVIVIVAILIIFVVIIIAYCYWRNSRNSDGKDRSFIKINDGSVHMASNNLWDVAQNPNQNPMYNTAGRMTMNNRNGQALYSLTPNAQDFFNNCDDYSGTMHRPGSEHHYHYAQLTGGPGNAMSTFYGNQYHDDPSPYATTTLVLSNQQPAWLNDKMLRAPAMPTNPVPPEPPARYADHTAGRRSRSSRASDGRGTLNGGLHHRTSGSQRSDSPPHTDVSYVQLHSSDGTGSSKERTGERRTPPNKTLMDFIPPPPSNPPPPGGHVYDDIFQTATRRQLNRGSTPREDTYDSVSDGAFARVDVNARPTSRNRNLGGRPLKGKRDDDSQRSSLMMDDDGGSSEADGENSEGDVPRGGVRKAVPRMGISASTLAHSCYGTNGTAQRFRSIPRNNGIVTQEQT

B1: HA::SLT-1::Gaussia luciferase (ligand, UniProt G5EFX6 17-1410)
chain: CPAECVCVDRTVSCVGQQLTEVPQNIPNDTIRLDLQDNEITKIGPNDFSSLMNLKALQLMDNQIVTIHNQSFSSLVFLQKLRLSRNRIRHLPDNVFQNNLKLTHLDLSENDITVVSDAQLQGPEFLEVLNLDKNHIFCLENNVISSWVSLEVLTLNGNRLTTFEEPSNARFRQLDLFNNPWNCDCRLRWMRKWLEKAEGQNKTVCATPLNLQGSSIEILQDKFMTCSGNRKRRYKKTCETAEICPLPCTCTGTTVDCRDSGLTYVPTNLPPSTTEIRLEQNQISSIPSHSFKNLKNLTRLDLSKNIITEIQPKAFLGLHNLHTLVLYGNNITDLKSDTFEGLGSLQLLLLNANQLTCIRRGTFDHVPKLSMLSLYDNDIKSISEVTFQNLTSLSTLHLAKNPLICDCNLQWLAQINLQKNIETSGARCEQPKRLRKKKFATLPPNKFKCKGSESFVSMYADSCFIDSICPTQCDCYGTTVDCNKRGLNTIPTSIPRFATQLLLSGNNISTVDLNSNIHVLENLEVLDLSNNHITFINDKSFEKLSKLRELRLNDNKLHHFSSMVLDEQSNLEILDLSGNNIQCFSSIFFNKATRIREIKVIGNDLLCDCRILPLMSWLRSNSSHSIDIPPCQQFQYSDNESDKQRCAAFPEETCSDDSNLCPPKCSCLDRVVRCSNKNLTSFPSRIPFDTTELYLDANYINEIPAHDLNRLYSLTKLDLSHNRLISLENNTFSNLTRLSTLIISYNKLRCLQPLAFNGLNALRILSLHGNDISFLPQSAFSNLTSITHIAVGSNSLYCDCNMAWFSKWIKSKFIEAGIARCEYPNTVSNQLLLTAQPYQFTCDSKVPTKLATKCDLCLNSPCKNNAICETTSSRKYTCNCTPGFYGVHCENQIDACYGSPCLNNATCKVAQAGRFNCYCNKGFEGDYCEKNIDDCVNSKCENGGKCVDLINSYRCDCPMEYEGKHCEDKLEYCTKKLNPCENNGKCIPINGSYSCMCSPGFTGNNCETNIDDCKNVECQNGGSCVDGILSYDCLCRPGYAGQYCEIPPMMDMEYQKTDACQQSACGQGECVASQNSSDFTCKCHEGFSGPSCDRQMSVGFKNPGAYLALDPLASDGTITMTLRTTSKIGILLYYGDDHFVSAELYDGRVKLVYYIGNFPASHMYSSVKVNDGLPHRISIRTSERKCFLQIDKNPVQIVENSGKSDQLITKGKEMLYIGGLPIEKSQDAKRRFHVKNSESLKGCISSITINEVPINLQQALENVNTEQSCSATVNFCAGIDCGNGKCTNNALSPKGYMCQCDSHFSGEHCDEKRIKCDKQKFRRHHIENECRSVDRIKIAECNGYCGGEQNCCTAVKKKQRKVKMICKNGTTKISTVHIIRQCQCEPTKSVLSEK
binding [1]: binds
binding [2]: binds
